Data on 40 compounds can be found in the antibiotic and cytotoxicity screens of Wong et al. (2023).

The list shows a part of the results.

This experiment has as its system HepG2. Nature of the experiment: cytotoxicity call (relative viability < 0.9). The following applies: 10 µM.
As for `Cc1noc(C)c1S(=O)(=O)Nc1cccc2c1O[C@@H](CN(C)Cc1ccccc1)[C@@H](C)CN([C@H](C)CO)C2=O`, the cytotoxicity call is “inactive”. On to `C[C@@H]1CN([C@@H](C)CO)C(=O)c2cc(NC(=O)Nc3ccc4c(c3)OCO4)ccc2O[C@@H](C)CCCCO[C@@H]1CN(C)C(=O)C1CCCCC1`, for which the cytotoxicity call is “inactive”.

Turning to `COc1ccc(CN(C)C[C@@H]2OCCCC[C@H](C)Oc3ccc(NC(=O)c4ccncc4)cc3C(=O)N([C@@H](C)CO)C[C@H]2C)cc1`, the cytotoxicity call is “inactive”. Next, `COc1ccc(NC(=O)Nc2ccc3c(c2)C(=O)N([C@@H](C)CO)C[C@@H](C)[C@@H](CN(C)Cc2ccc(Cl)c(Cl)c2)OCCCC[C@@H](C)O3)cc1`: “active”.

`O=C([C@@H]1[C@@H](CO)[C@@H]2Cn3c(cccc3=O)[C@@H]2N1C(=O)C1CCCC1)N1CCOCC1`: the cytotoxicity call is “inactive”. The entry for `O=C(C[C@@H]1CC[C@@H]2[C@H](COC[C@H](O)CN2C(=O)C2CC2)O1)NCc1ccncc1` is “inactive”; for `CN1CCN(C(=O)C[C@H]2CC[C@H]3[C@@H](COC[C@H](O)CN3C(=O)C3CCOCC3)O2)CC1` it is “inactive”; for `COc1ccc2c3c(n(c2c1)C)[C@@H](CO)N(C[C@]13CCN(CC1)C(=O)Nc1cccc(c1)F)C(=O)CN1CCOCC1` it is “inactive”. The entry for `Cc1ccc(S(=O)(=O)N(C)C[C@H]2Oc3c(NC(=O)c4ccncc4)cccc3C(=O)N([C@H](C)CO)C[C@H]2C)cc1` is “inactive”; for `C[C@@H]1CN([C@@H](C)CO)C(=O)c2cc(NC(=O)C3CCCCC3)ccc2O[C@@H](C)CCCCO[C@@H]1CN(C)Cc1ccccc1` it is “inactive”. With `COc1ccc(NC(=O)Nc2ccc3c(c2)C(=O)N([C@@H](C)CO)C[C@@H](C)[C@@H](CN(C)C(=O)Nc2ccc4c(c2)OCO4)OCCCC[C@@H](C)O3)cc1`, the cytotoxicity call was “inactive”. Next, `CC(=O)N1C[C@@H](NC(=O)c2nccn2C)[C@@H]2OCCC[C@@H]21`: “inactive”. The entry for `C[C@@H]1CN([C@H](C)CO)C(=O)CCCn2nncc2CO[C@@H]1CN(C)S(C)(=O)=O` is “inactive”; for `Cc1cc([N+](=O)[O-])nn1CC(=O)NC(C)C` it is “inactive”; for `COc1ccc2c3c([nH]c2c1)[C@@H](CO)N(C[C@]13CN(C1)C(=O)Cc1cccnc1)S(=O)(=O)c1ccc(cc1)C` it is “inactive”.

As to `C[C@H](CO)N1C[C@H](C)[C@H](CN(C)Cc2ccc(C(F)(F)F)cc2)Oc2ccc(NC(=O)Nc3ccc4c(c3)OCO4)cc2CC1=O`, the cytotoxicity call is “inactive”. As for `COc1ccc(NC(=O)N(C)C[C@H]2Oc3ccc(NS(C)(=O)=O)cc3C(=O)N([C@@H](C)CO)C[C@@H]2C)cc1`, the cytotoxicity call was “inactive”.

With `C[C@H](CO)N1C[C@H](C)[C@H](CN(C)S(=O)(=O)c2cn(C)cn2)Oc2ccc(NC(=O)C3CC3)cc2C1=O`, the cytotoxicity call was “inactive”. The entry for `O=c1c(O[C@@H]2O[C@H](CO)[C@@H](O)[C@H](O)[C@H]2O)c(-c2ccc(O)cc2)oc2cc(O)cc(O)c12` is “inactive”.

For `FC(F)(Cl)C(F)(F)Cl`, the cytotoxicity call was “inactive”. Next, `COc1ccccc1CNC(=O)C[C@H]1C[C@@H]2c3cc(NC(=O)C4CCOCC4)ccc3O[C@@H]2[C@H](CO)O1`: “inactive”. Next, `Cn1nc2c(c1N)CCC2`: “inactive”; `C[C@H]1CN([C@@H](C)CO)C(=O)c2cccc(NC(=O)C3CCCCC3)c2O[C@@H]1CN(C)C(=O)Nc1ccc(C(F)(F)F)cc1`: “inactive”; `CCS(=O)(=O)Nc1ccc2c(c1)C(=O)N(C)[C@H]1CC[C@@H](CC(=O)NCCCN3CCOCC3)O[C@H]1CO2`: “inactive”. Next, `CC(C)=CCOc1cc(C)cc2oc(=O)cc(-c3ccccc3)c12`: “inactive”; `COC(=O)C[C@H]1CC[C@H]2[C@@H](COC[C@@H](O)CN2S(=O)(=O)c2ccc(F)cc2)O1`: “inactive”.

Regarding `C[C@@H]1CN([C@H](C)CO)S(=O)(=O)c2ccc(C#Cc3ccccc3)cc2O[C@@H]1CN(C)C(=O)Cc1ccccn1`, the cytotoxicity call was “inactive”.

On to `Cc1noc(C)c1NC(=O)Nc1cccc2c1O[C@@H](CN(C)Cc1ccc(Oc3ccccc3)cc1)[C@@H](C)CN([C@@H](C)CO)C2=O`, for which the cytotoxicity call was “inactive”. The entry for `Cc1noc(C)c1NC(=O)N[C@@H]1C=C[C@H](CC(=O)NCCCN(C)C)O[C@H]1CO` is “inactive”; for `COc1ccc2c3c([nH]c2c1)[C@H](CO)N(C[C@]13CCN(CC1)C(=O)Nc1cccc(c1)F)C(=O)c1ccc(cc1)F` it is “inactive”.

As for `CNC[C@@H]1OCCCC[C@@H](C)Oc2ccc(NS(=O)(=O)c3c(C)noc3C)cc2C(=O)N([C@@H](C)CO)C[C@H]1C`, the cytotoxicity call was “inactive”. The entry for `CC(C)CC#Cc1ccc2c(c1)O[C@H](CN(C)S(=O)(=O)c1ccc(F)cc1)[C@H](C)CN([C@@H](C)CO)S2(=O)=O` is “inactive”; for `Cc1ccc(S(=O)(=O)N(C)C[C@H]2OCCCC[C@H](C)Oc3ccc(NS(=O)(=O)c4ccc(Cl)cc4)cc3C(=O)N([C@@H](C)CO)C[C@@H]2C)cc1` it is “active”. Take `Cc1ccc(S(=O)(=O)N(C)C[C@@H]2Oc3c(NC(=O)Nc4ccc(C(F)(F)F)cc4)cccc3C(=O)N([C@@H](C)CO)C[C@@H]2C)cc1`: the cytotoxicity call was “inactive”. Next, `Cc1noc(C)c1S(=O)(=O)N(C)C[C@@H]1OCc2cn(nn2)CCCC(=O)N([C@@H](C)CO)C[C@H]1C`: “inactive”; `NC(CO)(CO)CO.O=C(c1ccccc1)c1ccc2n1CCC2C(=O)O` (stereo not given): “inactive”. The entry for `C[C@H](CO)N1C[C@H](C)[C@H](CN(C)C(=O)CCCN(C)C)OCCCC[C@H](C)Oc2ccc(NS(=O)(=O)c3cn(C)cn3)cc2C1=O` is “inactive”; for `COc1ccccc1NC(=O)N(C)C[C@H]1Oc2ncc(C#CC(C)C)cc2C(=O)N([C@@H](C)CO)C[C@@H]1C` it is “inactive”; for `C[C@@H]1CN([C@H](C)CO)C(=O)c2cc(NS(=O)(=O)c3ccccc3)ccc2O[C@@H](C)CCCCO[C@@H]1CN(C)C(=O)C1CCCCC1` it is “inactive”. In the case of `C[C@@H]1CN([C@@H](C)CO)C(=O)Cc2cc(NC(=O)Cc3cn(C)c4ccccc34)ccc2O[C@@H]1CN(C)CC1CCCCC1`, the cytotoxicity call is “active”.
